In all, about 220,000 compounds went through this assay and about 16,000 (7.3%) were called active. This list was built around the results that the source calls inconclusive (neither active nor inactive); the mix of calls is not that of the screen. Calls follow the shape of the dose curve; as a rule, active = well fitted inhibition curve with a large enough effect (not every such curve was filed as active); inconclusive = small, poorly fitted or top-dose-only effect, or another doubt; inactive = no such curve, though single readings can be large or run the other way. Potencies of inconclusive entries are left out as doubtful fits.
biological target: Aldehyde dehydrogenase 1A1 (Homo sapiens) (UniProt P00352); experiment: qHTS Assay for Inhibitors of Aldehyde Dehydrogenase 1 (ALDH1A1); conditions: Purified ALDH1A1, NADH fluorescence, propionaldehyde substrate; series mostly up to 75.3 µM; activity, negative = inhibition: at the top concentration;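 as to activity, negative = inhibition: plate controls were no enzyme wells and a reference inhibitor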
Potency is read from the fitted curve at half-maximal effect; tags tell the direction and shape of the fitted curve.

Chain of UniProt P00352 (P00352 whole entry, looked up): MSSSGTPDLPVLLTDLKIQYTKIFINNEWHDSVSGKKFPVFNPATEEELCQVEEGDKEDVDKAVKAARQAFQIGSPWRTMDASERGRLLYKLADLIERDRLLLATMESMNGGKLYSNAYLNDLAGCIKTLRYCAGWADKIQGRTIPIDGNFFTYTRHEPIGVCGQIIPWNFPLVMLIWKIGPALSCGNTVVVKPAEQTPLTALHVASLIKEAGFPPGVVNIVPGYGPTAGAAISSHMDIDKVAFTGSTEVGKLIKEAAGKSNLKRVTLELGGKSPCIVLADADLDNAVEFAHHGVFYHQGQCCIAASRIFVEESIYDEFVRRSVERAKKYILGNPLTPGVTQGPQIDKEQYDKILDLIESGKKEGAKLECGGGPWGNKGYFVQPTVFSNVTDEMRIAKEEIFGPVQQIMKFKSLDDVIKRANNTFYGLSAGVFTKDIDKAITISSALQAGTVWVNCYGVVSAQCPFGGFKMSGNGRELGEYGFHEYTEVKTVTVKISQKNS

Compound	Potency	activity, negative = inhibition
COc1cc(NC(=S)NCc2ccc(S(N)(=O)=O)cc2)c(OC)cc1Cl	inconclusive [inhibitor, single point]	
CN(C)C(=O)c1c2c(nc3ccccc13)-c1ccccc1CC2	inconclusive [inhibitor, partial curve]	
COCCn1c(=S)[nH]c2cc(OC)c(OC)cc2c1=O	active: 31.6 µM	
CCOC(=O)C1CCN(C(=O)c2cc3cc(Br)ccc3oc2=O)CC1		inactive: -0.995%
Cc1ccc(Nc2nc(CSc3nnc(-c4ccccc4C)n3C)cs2)cc1	inconclusive [inhibitor, single point]	
O=C(c1cccs1)c1cn(CC(=O)N2CCc3ccccc3C2)c2ccccc12	inconclusive [inhibitor, single point]	
O=C(CSc1nnc(Nc2ccccc2F)s1)NCc1ccco1	inconclusive [inhibitor, single point]	
COC(=O)c1ccccc1N/C=C/C(=O)c1ccc(Br)cc1	inconclusive [inhibitor, single point]	
CC1CCN(S(=O)(=O)c2ccc(NC(=O)Cc3cccs3)cc2)CC1		inactive: -6.2%
Cc1ccc(S(=O)(=O)N2CCN(c3ccnc4cc(Cl)ccc34)CC2)cc1	inconclusive [inhibitor, single point]	
CCOC(=O)/C(=C\Nc1ccccc1C(F)(F)F)Sc1ncc(C(F)(F)F)cc1Cl		inactive: -15.2%
CCN(CC)C(=O)c1ccc(N)cc1		inactive: 0.407%
O=C(COC(=O)c1cc(-c2ccccc2Cl)nc2ccccc12)Nc1ncc(C(F)(F)F)cc1Cl		inactive: 14.9%
O=C(CSCc1ccccc1)Nc1ccc(S(=O)(=O)N2CCOCC2)cc1	inconclusive [inhibitor, partial curve]	
Fc1ccc(Cn2c(-c3cscn3)nc3ccccc32)c(Cl)c1		inactive: -2.34%
Cc1ccc(-n2c(=O)c3c(C)c(C)sc3n(Cc3cc(=O)n4ccccc4n3)c2=O)cc1C	inconclusive [inhibitor, single point]	
CN(N)C(=S)Nc1ccc(F)cc1		inactive: 5.08%
COc1ccc(Oc2coc3cc(OC(=O)/C=C/c4ccccc4)ccc3c2=O)cc1		inactive: 6.38%
COCCCNC(=O)/C(C#N)=C1\N=C(NC(=O)c2cccs2)c2ccccc21	active: 3.98 µM	
Cc1ccc(/C=N/Nc2ccc(C(=O)O)cc2)o1		inactive: 2.75%
NC(=O)C1(NC(=O)[C@@H]2CC3(CC(c4cccc(NC(=O)[C@@H]5CCC(=O)N5)c4)=NO3)CN2C(=O)c2cnccn2)CC1 (stereo not given in full)	active: 22.4 µM	
O=C(Nc1ccccc1C(=O)O)c1ccc(Cl)c(S(=O)(=O)N2CCOCC2)c1	inconclusive [inhibitor, partial curve]	
Cc1c(C(=O)N2CCc3ccccc3C2)sc2nc(-c3ccccc3)cn12	inconclusive [inhibitor, single point]	
CN1CCc2c(sc3c2c(=O)n(-c2ccccc2)c2nnc(SCc4ccccc4)n32)C1	active: 25.1 µM	
CS(=O)(=O)N1CCN(c2ccc(NC(=O)Cc3ccccc3)cc2)CC1		inactive: -11.4%

Compound	Potency	activity, negative = inhibition
CCOC(=O)CSc1ncnc2c1sc1nc(N3CCOCC3)c3c(c12)CCCC3	inconclusive [inhibitor, partial curve]	
O=C(CCCCCN1C(=O)c2cccc3cccc(c23)C1=O)NCc1ccco1	inconclusive [inhibitor, partial curve]	
[N-]=[N+]=CC(=O)c1ccnc(C(=O)C=[N+]=[N-])c1	inconclusive [inhibitor, single point]	
CCOC(=O)c1c(C)c(C(=O)N2CCN(C(=O)c3ccco3)CC2)c(C)n1C	active: 12.6 µM	
CCOC(=O)c1c(C)[nH]c(C)c1C(=O)COC(=O)/C=C/c1cccc(F)c1	inconclusive [inhibitor, single point]	
COc1ccccc1C(=O)NNC(=O)c1ccc(NC(=O)C(C)C)cc1		inactive: 9.37%
Cn1c(CSc2ccccc2)c(C#N)c2ccccc21	inconclusive [inhibitor, single point]	
COc1ccc(OC)c(NC(=O)N2CCCC(CNS(=O)(=O)c3cccs3)C2)c1 (stereo not given)	inconclusive [inhibitor, single point]	
CCNc1ncc2nc(C)c(=O)n(CCc3ccccc3)c2n1	inconclusive [inhibitor, full curve]	
COC(=O)c1cc(C(=O)CC(C)C)c[nH]1	inconclusive [inhibitor, single point]	
CCN(c1cccc(C)c1)S(=O)(=O)c1cccc2nsnc12	inconclusive [inhibitor, single point]	
Cc1ccc(-c2nnn(CC(=O)Nc3cccc4cccnc34)n2)o1	inconclusive [inhibitor, single point]	
CN(CC(=O)OCC(=O)c1c(N)n(C)c(=O)n(C)c1=O)S(=O)(=O)c1ccc(Cl)cc1		inactive: 6.69%
O=C1S/C(=C\c2ccccn2)C(=O)N1Cc1ccccc1F	inconclusive [inhibitor, full curve]	
CCN(CC)S(=O)(=O)c1ccc(Cl)c(C(=O)NCc2ccccc2Cl)c1	active: 7.94 µM	
CCOC(=O)c1c(-c2ccc(C)o2)csc1NC(=O)CSc1nnnn1-c1ccccc1	active: 1.58 µM	
c1ccc2c(SCc3cn4cccnc4n3)ncnc2c1	inconclusive [inhibitor, single point]	
COC(=O)c1ccc(Sc2ccc(C)cc2)c(N)c1	inconclusive [inhibitor, partial curve]	
Cc1cc(C(=O)CN2C(=O)NC(C)(CC(C)C)C2=O)c(C)n1-c1ccc2c(c1)OCO2 (stereo not given)	inconclusive [inhibitor, single point]	
CC(C)C(C(=O)Nc1ccc2c(c1)OCCOCCOCCOCCO2)N1C(=O)c2ccccc2C1=O (stereo not given)		inactive: 6.87%
CC(C)CNC(C(=O)Nc1ccc([N+](=O)[O-])cc1Br)c1ccccc1 (stereo not given)	active: 3.55 µM	
CC1CCN(C(=O)c2ccc(CSc3ccc(Cl)cc3)cc2)CC1	inconclusive [inhibitor, single point]	
Cc1cc(C)cc(OCC(=O)Nc2ccc(F)cc2)c1	inconclusive [inhibitor, partial curve]	
CC(c1ccco1)N(C(=O)c1ccc(Cl)s1)c1ccccn1 (stereo not given)	inconclusive [inhibitor, single point]	
O=C(NC(C(=O)c1ccccc1)n1c(=O)cc[nH]c1=S)c1ccccc1 (stereo not given)	inconclusive [inhibitor, single point]	

Compound	Potency	activity, negative = inhibition
O=C(COC(=O)Cc1ccc(Br)cc1)NCc1ccc(F)cc1	inconclusive [inhibitor, single point]	
COc1ccc(S(=O)(=O)NCCSCc2ccco2)cc1Cl	active: 20 µM	
CCCOc1ccccc1/C=C(\C#N)C(=O)Nc1cccnc1	inconclusive [inhibitor, partial curve]	
C=C(C)Cn1c(C)cc(C)c(S(=O)(=O)c2cccc(C)c2)c1=O	inconclusive [inhibitor, single point]	
CC(C)(C)NC(=O)C(=O)NCCC1=CCCCC1		inactive: 16.7%
COc1ccc(CN2CCN(C(=O)CC(C)C)CC2)c(OC)c1OC		inactive: -8.45%
Cn1nnnc1SCC(=O)Nc1ccc(Oc2ccc(Cl)cc2)cc1		inactive: 0.386%
O=C(OCCN1C(=O)c2cccc3c(N4CCOCC4)ccc(c23)C1=O)c1ccccc1Cl		inactive: -14.4%
COc1ccc(C(C[N+](=O)[O-])c2c(-c3ccccc3)cc3ccccn23)c(OC)c1 (stereo not given)	inconclusive [inhibitor, partial curve]	
O=c1[nH]c2ccccc2n1Cc1ccccc1		inactive: 12.4%
O=C(CSc1nc2ccccc2s1)N/N=C/c1ccccc1C(=O)O		inactive: 7.93%
O=C1c2ccccc2C(Nc2ccc(S(=O)(=O)N3CCCCC3)cc2)N1c1ccccn1 (stereo not given)	active: 5.01 µM	
CC(C)Sc1nc2ccccc2n1CC(N)=O		inactive: 12.6%
O=C(CN1C(=O)C(=O)c2ccccc21)NCCc1ccccc1	active: 0.0891 µM	
C=CCn1c(Cc2csc(N)n2)nnc1SCC(=O)OCC		inactive: 6.02%
COc1ccc(OC)c(C(=O)c2coc3ccc(OC)cc23)c1	active: 14.1 µM	
Cc1ccc(C(c2nnnn2CC2CCCO2)N2CCN(c3cccc(C)c3C)CC2)cc1 (stereo not given)	inconclusive [inhibitor, single point]	
NS(=O)(=O)c1cccc(NC(=O)COC(=O)C2(c3cccc(F)c3)CCCC2)c1	inconclusive [inhibitor, partial curve]	
CCOC(=O)CN1C(=O)C(O)(CC(=O)c2ccccn2)c2ccccc21 (stereo not given)	active: 0.224 µM	
Cc1cc(C)nc(N(C#N)Cc2cccc([N+](=O)[O-])c2)n1	inconclusive [inhibitor, partial curve]	
Cc1cc(=O)oc2cc(OC(C)C)ccc12	inconclusive [inhibitor, partial curve]	
Fc1ccc(Oc2cc(N3CCOCC3)nc(-c3ccccc3)n2)c(F)c1	inconclusive [inhibitor, single point]	
CC(C)C(NC(=O)CSCc1ccc([N+](=O)[O-])cc1)C(C)C		inactive: -10.5%
Cc1cccc(NC(=O)CSc2nc3nc4c(cc3c(=O)n2-c2ccccc2)CCCC4)c1	inconclusive [inhibitor, full curve]	
CC1(C)Oc2ccc3ccc(=O)oc3c2C(N2CCCCC2)C1O (stereo not given)	inconclusive [inhibitor, partial curve]	

Reference: PubChem BioAssay AID1030 (National Center for Advancing Translational Sciences (NCATS), 2008)
